Measurements published in publication PMC9946837.
These are yes or no findings as the source states them, for the method shown. Binding seen in cells or lysates may run through a third protein. Some entries that bind do so weakly or less than the wild type. For part of these data: Sequences can lack the tags named with a protein. Values belong to the molecule of their own block, whether it stands above or below them.

By UniProt entry, the sequences of proteins in these tests, tags left out. Where a name states a change or a piece, a line headed by the entry shows the natural chain unless it says otherwise.
UniProt Q8CHK4: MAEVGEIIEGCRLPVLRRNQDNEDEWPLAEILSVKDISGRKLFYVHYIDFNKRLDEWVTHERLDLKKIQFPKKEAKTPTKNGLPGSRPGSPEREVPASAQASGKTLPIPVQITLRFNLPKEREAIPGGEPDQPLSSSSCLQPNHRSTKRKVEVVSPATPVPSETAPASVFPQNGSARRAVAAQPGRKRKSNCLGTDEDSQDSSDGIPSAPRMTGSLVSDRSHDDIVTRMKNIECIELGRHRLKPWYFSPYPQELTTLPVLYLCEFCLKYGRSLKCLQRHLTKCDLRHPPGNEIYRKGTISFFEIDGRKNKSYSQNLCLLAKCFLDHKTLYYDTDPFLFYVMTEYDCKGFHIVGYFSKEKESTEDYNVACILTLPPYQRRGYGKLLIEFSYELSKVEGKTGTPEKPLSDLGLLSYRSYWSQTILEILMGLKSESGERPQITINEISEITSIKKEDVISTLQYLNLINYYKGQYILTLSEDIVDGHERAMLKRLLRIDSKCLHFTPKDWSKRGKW
UniProt Q9JI44: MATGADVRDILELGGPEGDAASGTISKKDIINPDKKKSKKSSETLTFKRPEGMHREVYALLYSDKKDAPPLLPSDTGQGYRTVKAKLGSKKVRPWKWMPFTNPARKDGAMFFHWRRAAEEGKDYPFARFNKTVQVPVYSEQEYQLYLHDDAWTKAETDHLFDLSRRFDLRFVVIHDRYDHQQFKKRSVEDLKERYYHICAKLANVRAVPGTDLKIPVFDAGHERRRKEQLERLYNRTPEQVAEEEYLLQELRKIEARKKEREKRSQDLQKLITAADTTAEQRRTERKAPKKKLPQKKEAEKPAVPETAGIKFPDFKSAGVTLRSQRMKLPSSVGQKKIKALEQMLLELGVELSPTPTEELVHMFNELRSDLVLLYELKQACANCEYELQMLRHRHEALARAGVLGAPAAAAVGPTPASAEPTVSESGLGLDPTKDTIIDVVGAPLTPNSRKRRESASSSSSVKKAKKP
UniProt P01101: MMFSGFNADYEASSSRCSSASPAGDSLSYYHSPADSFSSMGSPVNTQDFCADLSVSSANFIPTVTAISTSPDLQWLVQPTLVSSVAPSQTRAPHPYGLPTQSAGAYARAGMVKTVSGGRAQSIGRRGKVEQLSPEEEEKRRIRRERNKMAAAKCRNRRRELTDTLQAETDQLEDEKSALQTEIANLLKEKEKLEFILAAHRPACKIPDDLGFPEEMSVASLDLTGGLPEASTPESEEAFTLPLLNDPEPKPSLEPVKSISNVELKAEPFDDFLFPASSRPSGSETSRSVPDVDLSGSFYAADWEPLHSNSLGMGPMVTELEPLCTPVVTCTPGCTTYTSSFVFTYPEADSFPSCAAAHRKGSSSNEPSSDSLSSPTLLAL
UniProt Q9NPF5: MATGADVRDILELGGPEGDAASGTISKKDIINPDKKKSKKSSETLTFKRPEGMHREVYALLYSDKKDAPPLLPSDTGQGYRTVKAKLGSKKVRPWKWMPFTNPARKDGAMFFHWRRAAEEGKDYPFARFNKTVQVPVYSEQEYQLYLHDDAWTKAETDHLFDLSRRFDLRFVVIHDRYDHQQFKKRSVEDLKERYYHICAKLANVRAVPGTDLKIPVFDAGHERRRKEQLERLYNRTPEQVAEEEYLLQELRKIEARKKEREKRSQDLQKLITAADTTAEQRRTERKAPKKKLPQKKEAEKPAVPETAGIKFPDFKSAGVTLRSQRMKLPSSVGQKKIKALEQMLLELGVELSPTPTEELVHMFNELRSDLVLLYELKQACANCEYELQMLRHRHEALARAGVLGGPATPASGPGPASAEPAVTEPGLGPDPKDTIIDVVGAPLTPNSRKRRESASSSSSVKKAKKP
UniProt Q8CHI8: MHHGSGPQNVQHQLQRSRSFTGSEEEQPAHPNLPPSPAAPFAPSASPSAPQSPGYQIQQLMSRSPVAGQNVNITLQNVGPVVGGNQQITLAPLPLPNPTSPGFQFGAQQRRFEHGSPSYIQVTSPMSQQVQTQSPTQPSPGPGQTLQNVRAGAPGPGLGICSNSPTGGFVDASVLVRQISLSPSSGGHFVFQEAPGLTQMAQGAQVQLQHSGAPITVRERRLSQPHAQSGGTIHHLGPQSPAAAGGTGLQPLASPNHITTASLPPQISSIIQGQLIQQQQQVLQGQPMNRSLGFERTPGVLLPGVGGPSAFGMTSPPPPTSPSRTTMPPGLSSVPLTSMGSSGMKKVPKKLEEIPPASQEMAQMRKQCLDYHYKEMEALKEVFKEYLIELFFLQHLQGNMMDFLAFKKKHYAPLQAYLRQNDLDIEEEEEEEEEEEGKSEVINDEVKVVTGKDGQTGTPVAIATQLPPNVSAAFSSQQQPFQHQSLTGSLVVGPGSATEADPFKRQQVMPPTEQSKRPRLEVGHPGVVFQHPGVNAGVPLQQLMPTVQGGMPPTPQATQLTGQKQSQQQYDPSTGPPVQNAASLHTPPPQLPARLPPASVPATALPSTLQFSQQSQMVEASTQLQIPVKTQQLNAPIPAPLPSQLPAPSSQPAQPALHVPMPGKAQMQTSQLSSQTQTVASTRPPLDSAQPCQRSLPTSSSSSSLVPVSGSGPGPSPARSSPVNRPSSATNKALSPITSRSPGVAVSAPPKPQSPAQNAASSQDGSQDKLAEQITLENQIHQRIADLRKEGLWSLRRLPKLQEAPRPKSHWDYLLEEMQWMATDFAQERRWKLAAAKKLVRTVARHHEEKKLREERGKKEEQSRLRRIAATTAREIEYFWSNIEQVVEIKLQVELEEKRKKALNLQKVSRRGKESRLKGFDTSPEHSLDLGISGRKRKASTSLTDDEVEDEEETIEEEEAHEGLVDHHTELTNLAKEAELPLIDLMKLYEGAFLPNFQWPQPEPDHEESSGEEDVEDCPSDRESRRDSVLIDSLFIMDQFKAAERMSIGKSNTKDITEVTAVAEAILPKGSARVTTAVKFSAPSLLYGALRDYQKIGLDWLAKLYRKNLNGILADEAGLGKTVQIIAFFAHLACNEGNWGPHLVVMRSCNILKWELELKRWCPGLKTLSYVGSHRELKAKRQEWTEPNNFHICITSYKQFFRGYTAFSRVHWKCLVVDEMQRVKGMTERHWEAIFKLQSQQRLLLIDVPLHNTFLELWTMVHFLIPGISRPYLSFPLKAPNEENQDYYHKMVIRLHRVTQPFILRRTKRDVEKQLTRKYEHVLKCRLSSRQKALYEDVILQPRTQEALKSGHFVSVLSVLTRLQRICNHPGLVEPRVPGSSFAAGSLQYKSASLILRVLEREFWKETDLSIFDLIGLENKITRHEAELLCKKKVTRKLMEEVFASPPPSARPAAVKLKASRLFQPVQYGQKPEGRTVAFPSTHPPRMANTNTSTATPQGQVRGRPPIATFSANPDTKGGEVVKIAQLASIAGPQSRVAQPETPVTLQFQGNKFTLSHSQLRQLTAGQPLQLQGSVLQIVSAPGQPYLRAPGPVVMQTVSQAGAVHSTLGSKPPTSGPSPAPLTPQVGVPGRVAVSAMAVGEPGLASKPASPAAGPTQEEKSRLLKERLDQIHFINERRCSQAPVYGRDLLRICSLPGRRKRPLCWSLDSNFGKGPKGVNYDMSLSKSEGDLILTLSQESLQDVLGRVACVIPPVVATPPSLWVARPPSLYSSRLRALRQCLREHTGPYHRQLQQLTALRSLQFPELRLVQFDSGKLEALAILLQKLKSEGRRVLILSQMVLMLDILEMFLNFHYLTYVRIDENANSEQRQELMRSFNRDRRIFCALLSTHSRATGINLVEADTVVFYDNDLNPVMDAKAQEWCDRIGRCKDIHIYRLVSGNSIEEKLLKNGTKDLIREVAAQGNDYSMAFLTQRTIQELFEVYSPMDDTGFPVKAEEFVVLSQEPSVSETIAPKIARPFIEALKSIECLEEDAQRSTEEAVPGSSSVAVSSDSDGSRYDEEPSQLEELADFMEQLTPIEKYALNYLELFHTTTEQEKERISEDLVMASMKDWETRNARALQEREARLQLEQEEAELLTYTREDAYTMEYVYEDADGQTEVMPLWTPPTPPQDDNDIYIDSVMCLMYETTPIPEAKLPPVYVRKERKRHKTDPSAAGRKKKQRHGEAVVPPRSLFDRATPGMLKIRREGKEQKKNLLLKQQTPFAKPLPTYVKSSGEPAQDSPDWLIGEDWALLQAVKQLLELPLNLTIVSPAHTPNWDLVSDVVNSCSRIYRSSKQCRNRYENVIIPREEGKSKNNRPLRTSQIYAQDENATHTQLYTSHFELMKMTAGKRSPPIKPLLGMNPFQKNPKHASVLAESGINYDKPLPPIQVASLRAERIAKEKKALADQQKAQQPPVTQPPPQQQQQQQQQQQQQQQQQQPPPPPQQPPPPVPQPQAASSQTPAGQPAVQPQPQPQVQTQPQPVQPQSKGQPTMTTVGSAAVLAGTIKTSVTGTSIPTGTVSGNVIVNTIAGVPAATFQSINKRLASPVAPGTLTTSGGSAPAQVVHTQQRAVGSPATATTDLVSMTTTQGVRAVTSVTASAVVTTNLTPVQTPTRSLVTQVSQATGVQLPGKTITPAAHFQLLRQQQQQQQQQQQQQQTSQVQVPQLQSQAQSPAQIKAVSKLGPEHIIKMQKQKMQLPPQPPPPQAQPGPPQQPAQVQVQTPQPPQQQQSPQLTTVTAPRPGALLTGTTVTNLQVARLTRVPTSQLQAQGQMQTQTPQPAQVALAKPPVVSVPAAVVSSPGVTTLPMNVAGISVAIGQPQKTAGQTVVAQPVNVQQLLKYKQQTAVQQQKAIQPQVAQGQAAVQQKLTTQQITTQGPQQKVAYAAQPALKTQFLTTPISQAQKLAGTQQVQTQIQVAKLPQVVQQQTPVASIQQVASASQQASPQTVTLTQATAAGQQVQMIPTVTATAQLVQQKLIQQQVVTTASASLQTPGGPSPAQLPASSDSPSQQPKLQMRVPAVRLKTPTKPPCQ

Legend:
NPAS4–Flag-HA (mouse) = molecular target: T1, NPAS4–Flag-HA (mouse) (UniProt Q8BGD7); assay: co-IP; anti-Flag IP and Western blot from visual cortex (V1) of Npas4–Flag-HA or wild-type mice housed in the dark for 1 week, then 2 h light stimulation; conditions as for the hippocampal IP
T1 sequence: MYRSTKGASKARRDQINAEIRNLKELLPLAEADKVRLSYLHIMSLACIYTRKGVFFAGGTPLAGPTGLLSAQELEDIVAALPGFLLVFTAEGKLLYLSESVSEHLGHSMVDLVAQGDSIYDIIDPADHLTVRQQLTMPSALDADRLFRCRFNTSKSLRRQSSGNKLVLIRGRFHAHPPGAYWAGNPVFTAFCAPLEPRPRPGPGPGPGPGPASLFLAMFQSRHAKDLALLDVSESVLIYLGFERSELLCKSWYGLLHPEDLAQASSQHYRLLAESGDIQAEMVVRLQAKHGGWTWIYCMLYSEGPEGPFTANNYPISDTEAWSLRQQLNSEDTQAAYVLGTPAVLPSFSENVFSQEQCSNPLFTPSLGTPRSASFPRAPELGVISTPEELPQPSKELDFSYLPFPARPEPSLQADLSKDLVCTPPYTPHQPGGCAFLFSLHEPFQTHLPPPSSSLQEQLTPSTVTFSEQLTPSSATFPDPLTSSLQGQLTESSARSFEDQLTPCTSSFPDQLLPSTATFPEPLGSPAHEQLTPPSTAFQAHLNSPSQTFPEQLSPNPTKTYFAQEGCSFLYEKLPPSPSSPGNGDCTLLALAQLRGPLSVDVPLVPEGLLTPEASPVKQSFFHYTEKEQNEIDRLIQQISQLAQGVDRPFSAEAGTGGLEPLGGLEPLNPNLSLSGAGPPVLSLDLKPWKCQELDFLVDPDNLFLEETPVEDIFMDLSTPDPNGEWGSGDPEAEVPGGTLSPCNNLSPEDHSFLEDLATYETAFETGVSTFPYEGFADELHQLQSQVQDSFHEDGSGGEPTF

[1] = molecular target: TIP60-Flag (Tip60-H3F knock-in mice) (mouse) (UniProt Q8CHK4); assay: co-IP; anti-Flag IP and Western blot from hippocampal nuclear lysates of wild-type, Npas4-FH and Tip60-Flag mice, unstimulated (0 h) and 2 h after kainic acid; conditions as for the IP–MS
[2] = molecular target: T2, Flag-HA-tagged full length NPAS4 (amino acids 1-802) (UniProt Q8BGD7); assay: co-IP; sequential anti-Flag and anti-HA IP from nuclear lysates of transfected HEK293T cells, Western blot for NPAS4, ARNT2, TRRAP and DMAP1; washes with 250 mM NaCl; Flag-HA nuclear GFP as control
T2 sequence: T1 sequence

[3] = molecular target: TIP60-Flag (Tip60-H3F knock-in mice) (mouse) (UniProt Q8CHK4); assay: co-IP; anti-Flag IP and Western blot from hippocampal nuclear lysates of wild-type, Npas4-FH and Tip60-Flag mice, unstimulated (0 h) and 2 h after kainic acid; conditions as for the IP–MS; remark: listed apart in the source
[4] = molecular target: TIP60-Flag (Tip60-H3F knock-in mice) (mouse) (UniProt Q8CHK4); assay: co-IP; anti-Flag IP and Western blot from high molecular weight fractions (10–40% glycerol gradient) of cortical nuclear lysates of wild-type, Npas4-FH and Tip60-F mice 2 h after kainic acid; washes with 250 mM NaCl
[5] = molecular target: TIP60-Flag (Tip60-H3F knock-in mice) (mouse) (UniProt Q8CHK4); assay: co-IP; anti-Flag IP and Western blot from low molecular weight fractions (glycerol gradient) of cortical lysates of wild-type, Npas4-FH and Tip60-F mice

Molecule: DMAP1 (from UniProt Q9JI44 1-468)
- binding (NPAS4–Flag-HA (mouse)): binds

Molecule: FOS (from UniProt P01101 1-380)
- binding [1]: no binding

Molecule: DMAP1 (from UniProt Q9NPF5 1-467)
- binding [2]: binds

Molecule: EP400 (from UniProt Q8CHI8 1-3072)
- binding (NPAS4–Flag-HA (mouse)): binds

Second part, the molecule after the results:

- binding [2]: binds
Molecule: TRRAP (from UniProt Q9Y4A5 1-3859)

- binding [3]: binds
- binding [4]: binds
- binding [5]: binds
B1: NPAS4 (protein, UniProt Q8BGD7 1-802)
chain: T1 sequence

- binding [3]: no binding
B2: NPAS3 (protein, UniProt Q9QZQ0 1-925)
chain: MGRAGAAANGTPQNVQGITSYQQRITAQHPLPNQSECRKIYRYDGIYCESTYQNLQALRKEKSRDAARSRRGKENFEFYELAKLLPLPAAITSQLDKASIIRLTISYLKMRDFANQGDPPWNLRMEGPPPNTSVKGAQRRRSPSALAIEVFEAHLGSHILQSLDGFVFALNQEGKFLYISETVSIYLGLSQVELTGSSVFDYVHPGDHVEMAEQLGMKLPPGRGLLSQGTTEDAASSASSSSQSETPEPVETTSPSLLTTDNTLERSFFIRMKSTLTKRGVHIKSSGYKVIHITGRLRLRVPLSHGRTVPSQIMGLVVVAHALPPPTINEVRIDCHMFVTRVNMDLNIIYCENRISDYMDLTPVDIVGKRCYHFIHAEDVEGIRHSHLDLLNKGQCVTKYYRWMQKNGGYIWIQSSATIAINAKNANEKNIIWVNYLLSNPEYKDTPMDIAQLPHLPEKASESSETSDSESDSKDTSGITEDNENSKSDEKGNQSENSEDPEPDRKKSGSACDNDMNCNDDGHSSSNPDSRDSDDSFEHSDFEHPKAAEDGFGALGPMQIKVERYVESEADLRLQPCESLTSDSAKDSDSANEAGAQASSKHQKRKRRRKRQKGGSASRRRLSSASSPGLDAGLVEPPRLLSSPHSASVLKIKTEIAEPINFDNESSIWNYPPNREISRNESPYSMTKPPTSEHFPSPQGQGGSIGGGGALHVAIPDSVLTPPGADGTAGRKTQFSGTAPVPSDPLSPPLSASPRDKHPGGGAGSGGGGPGASNSLLYTGDLEALQRLQAGNVVLPLVHRVTGTLAATSTAAQRVYTTGTIRYAPAEVTLAMQGNLLPNAHAVNFVDVNSPGFGLDPKTPMEMLYHHVHRLNMSGPFGGAVSAASLTQMPGGNVFTTAEGLFSTLPFPVYSNGIHAAQTLERKED
